Laboratory results from PubChem BioAssay AID651820 (National Center for Advancing Translational Sciences (NCATS), 2012).
Hit rate of the full screen: of about 340,000 compounds, about 12,000 (3.5%) were called active. This list was built around the results that the source calls inconclusive (neither active nor inactive); the mix of calls is not that of the screen. The call rests on the fitted dose curve; in most records, active means well fitted inhibition curve with a large enough effect; inconclusive means small, poorly fitted or top-dose-only effect, or another doubt; inactive means no such curve, though single readings can be large or run the other way. No potency is given beside an inconclusive call; the fits are too rough.

Test: qHTS Assay for Inhibitors of Hepatitis C Virus (HCV)
Details: Huh7.5.1 HCVcc-Cre (HCVcc is cell-culture hepatitis C virus) infection, luciferase reporter, 44 h; activity change, negative = inhibition: at 41.8 µM (top of the series) unless noted
Method in brief: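 1,000 cells/well; 4 h culture; + compound; + HCVcc-Cre (~0.5 moi); 44 h; luciferase substrate, RT 15 min; read 15 sec.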
On the % scale 0 is the no-effect control and ±100 the full control effect; potency means the concentration at half of the fitted maximal effect; tags describe the fitted curve by direction and shape.

SMILES	Potency	activity change, negative = inhibition
CC(=O)N(C)c1ccc(NC(=S)Nc2ccc(C(C)C)cc2)cc1	inconclusive [inhibitor, single point]	
CCOc1cc(CNc2cccc3ccccc23)cc(Br)c1OCC(=O)NC(C)(C)C	inconclusive [inhibitor, partial curve, poor fit]	
CCc1nn(CC(=O)NCc2cccnc2)c(=O)c2cc3occc3n12	inconclusive [inhibitor, single point]	
COC(=O)C1=C(N)Oc2cc(C)n(CCc3ccccc3)c(=O)c2C1c1cccnc1 (configuration not stated)	inconclusive [inhibitor, single point]	
O=C(OCc1ccc(Cl)c(Cl)c1)c1ccccn1		inactive: 17.1%
CN(Cc1ccccc1)C(=O)c1cccc(NC(=O)Cc2ccc(NC(=O)C3CCN(C(=O)C4CCCC4)CC3)cc2)c1	inconclusive [inhibitor, partial curve]	
COc1cc2[nH]c(=S)nc(NCC3CCCO3)c2cc1OC (configuration not stated)		inactive: 8.35%
O=C(c1noc2c1CCCC2)N1CCN(c2ccccc2)CC1		inactive: 2.77%
COc1cc(NC(=O)C(=O)NCCN(C)C)c(OC)cc1Cl	inconclusive [inhibitor, single point]	
CS(=O)(=O)N1CCN(c2ccc([N+](=O)[O-])c(NCc3cccnc3)c2)CC1	inconclusive [inhibitor, single point]	
Cc1[nH]c2ccccc2c1C(=O)COC(=O)c1c(-c2c(F)cccc2Cl)noc1C	inconclusive [inhibitor, single point]	
Nc1ncnc2oc(-c3ccco3)c(-c3ccco3)c12	active: 11.2 µM	
CCCNC(=O)N1[C@H]2CC[C@@H]1C(C(=O)OC)=C(c1cc3ccccc3s1)C2	inconclusive [inhibitor, partial curve]	
O=C(CCl)N(c1ccccc1)c1ccccc1	active: 8.91 µM	
CC(C)OC(=O)c1cc(Cl)c(=O)n(Cc2ccc(Cl)cc2Cl)c1	inconclusive [inhibitor, single point]	
COc1ccc2c(c1)C(=NN)c1cc(OC)ccc1-2	inconclusive [inhibitor, single point]	
C=CCOC(=O)C1=C(C)NC(SCC(=O)N(CC)CC)=C(C#N)C1c1ccco1 (configuration not stated)	inconclusive [inhibitor, partial curve]	
COc1ccc(OCCCCc2c(C)n[nH]c2C)cc1	inconclusive [inhibitor, full curve, poor fit]	
COc1ccc2[nH]c(C)c(C(=O)CN3CCN(C/C=C/c4ccccc4)CC3)c2c1	inconclusive [inhibitor, single point]	
COc1ccc2[nH]c3c(c2c1)CCN1C(=O)C(CC(=O)NCCCn2ccnc2)C[C@H](C(=O)N(C(C)C)C(C)C)[C@@]31C (some centres not stated)		inactive: -4.42%
COc1ccc2[nH]cc(CCNC(=O)Cc3ccc(Br)cc3)c2c1	inconclusive [inhibitor, single point]	
Cc1ccc(N2C(=O)CSC2c2cccs2)cc1 (configuration not stated)		inactive: -1.86%
COn1c2c(c3c4no[n+]([O-])c4ccc31)CCCC2	inconclusive [inhibitor, full curve, poor fit]	

SMILES	Potency	activity change, negative = inhibition
c1ccc(-c2cnc(-c3ccccc3)nn2)cc1		inactive: 10.8%
O=[N+]([O-])c1cc2c(c(CSc3nnc(Nc4ccccc4)s3)c1)OCOC2	inconclusive [inhibitor, full curve]	
CC(=O)Nc1ccc(CN2CCCC(C(=O)c3ccc(C(F)(F)F)cc3)C2)cc1 (configuration not stated)	inconclusive [inhibitor, partial curve]	
C=CCn1c(O)c(C(C)=Nc2ccc(N(CC)CC)cc2)c(=O)[nH]c1=O	inconclusive [inhibitor, single point]	
COc1ccc(CCn2c(=N)c(C(=O)NC3CCCCC3)cc3c(=O)n4ccccc4nc32)cc1	inconclusive [inhibitor, full curve, poor fit]	
O=C(CC(NC(=O)c1ccccc1)c1ccccc1)Nc1ccc(F)c(F)c1 (configuration not stated)	inconclusive [inhibitor, single point]	
O=C(O)CN1C(=O)Nc2ccc(Br)cc2C1c1ccccc1 (configuration not stated)	inconclusive [inhibitor, single point]	
COc1ccc(S(=O)(=O)N2CCCCCC2)cc1C(=O)N1CCN(c2ccccc2C)CC1	inconclusive [inhibitor, single point]	
c1ccc(-c2nc(N3CCCCCC3)nc(-n3ccnc3)n2)cc1	inconclusive [inhibitor, partial curve]	
O=C(CC(Nc1ccc(Cl)cc1Cl)C(=O)O)c1ccccc1 (configuration not stated)		inactive: 11%
Cc1ccc(N2CC(C(=O)NCCC(C)C)CC2=O)cc1 (configuration not stated)		inactive: -1.32%
Cc1ccc(C(=O)N/N=C\c2ccc(-c3ccc(Cl)cc3)o2)cn1	active: 11.2 µM	
Cc1ccc2c(c1)N(C(=O)CCC(=O)N1CCN(c3ccccc3)CC1)CCO2		inactive: -11.2%
COC(=O)[C@H]1[C@H]2C[C@@H]3c4[nH]c5cc(OC)ccc5c4CCN3C[C@H]2C[C@@H](OC(=O)/C=C/c2cc(OC)c(OC)c(OC)c2)[C@@H]1OC	inconclusive [inhibitor, single point]	
COc1cc(C(=O)Nc2nc3ccc(C)cc3s2)ccc1OCc1c(C)noc1C	inconclusive [inhibitor, full curve]	
CCOc1cccc(C(=O)Nc2cccc(C(=O)NCC(C)C)c2)c1	inconclusive [inhibitor, partial curve]	
COc1ccc(-n2c(C)cc(=O)[nH]c2=O)cc1		inactive: 19.9%
CC(C)n1nc(C(=O)NNC(=O)c2ccc(OC(F)F)cc2)c2ccccc2c1=O	inconclusive [inhibitor, full curve]	
COC(=O)[C@@]12CCCCN1[C@H](c1ccc(-c3ccc(Cl)c(Cl)c3)c(OC)c1)[C@@H]1C(=O)N(C)C(=O)[C@@H]12		inactive: -29.1%
c1ccc2c(c1)CCN(c1nc3cc4c(cc3s1)OCO4)C2	inconclusive [inhibitor, single point]	
CCOc1cc(N2CCOCC2)c(OCC)cc1NC(=O)c1ccc(C)s1	active: 25.1 µM	
CCCCCC(O)(CCN1CCCCC1)c1ccccc1 (configuration not stated)	inconclusive [inhibitor, partial curve, poor fit]	
CC(=O)Oc1ccc(-c2ccc(C(=O)Nc3cccc(S(=O)(=O)N4CCOCC4)c3)cc2)cc1	inconclusive [inhibitor, partial curve, poor fit]	

SMILES	Potency	activity change, negative = inhibition
O=C(NC(Nc1nc2ccc([N+](=O)[O-])cc2s1)(C(F)(F)F)C(F)(F)F)c1ccccc1Cl	active: 0.562 µM	
COc1ccc(CC(=O)Nc2ccc(-c3noc(-c4ccc(Cl)cc4)n3)cc2)cc1	inconclusive [inhibitor, single point]	
Cc1ccc(-c2nc(Nc3ccc(N4CCOCC4)cc3)c3ccccc3n2)cc1		inconclusive: -72.1% [inhibitor]
CC(C)(C)C1CCC2(CC1)CC(=O)c1ccccc1O2 (configuration not stated)		inactive: 9.18%
Cc1ccc(Cl)cc1N1CCN(C(=O)c2ccc(CN3CCOCC3)cc2)CC1	active: 25.1 µM	
COc1cccc(-c2nc(CS(=O)(=O)CC(=O)NCCC(C)C)c(C)o2)c1	inconclusive [inhibitor, partial curve]	
O=C(CCl)NCCCN(C(=O)C(Cl)Cl)c1ccc([N+](=O)[O-])cc1	inconclusive [inhibitor, single point]	
O=C1C(Br)=C(c2ccccc2)C(c2ccccc2)=C1c1ccccc1	active: 6.31 µM	
CC(C)N(C(=O)[C@H]1C[C@H](CC(=O)NCc2ccco2)C(=O)N2CCc3c([nH]c4cc(-c5ccco5)ccc34)[C@]12C)C(C)C	inconclusive [inhibitor, single point]	
O=S(=O)(NC1CCc2ccccc21)c1ccc(S(=O)(=O)N2CCCC2)cc1 (configuration not stated)	active: 11.2 µM	
C[C@]12CCC(=O)C=C1CC[C@@H]1[C@@H]2CC[C@@]2(C)[C@H]1CC[C@]2(C)O	inconclusive [inhibitor, partial curve]	
COc1ccc(NC(=O)c2c(NC(=O)CNCc3ccco3)sc3c2CCC3)c(OC)c1	inconclusive [inhibitor, full curve]	
CC(/C=N/n1c(-c2ccncc2)n[nH]c1=S)=C\c1ccco1		inactive: -25.6%
CC1(c2ccc(OC(F)F)cc2)NC(=O)N(CC(=O)Nc2ccccc2)C1=O (configuration not stated)	inconclusive [inhibitor, single point]	
COc1cc(F)cc(C2=CC(=O)C[C@H](c3ccc(F)cc3)C2)c1	inconclusive [inhibitor, single point]	
CCCSc1ncnc2sc(C)c(C)c12	inconclusive [inhibitor, partial curve]	
COc1cccc(C2(O)C(=O)Nc3ccccc32)c1 (configuration not stated)	inconclusive [inhibitor, single point]	
COc1ccc(NC(=O)C2CC(c3ccc(OC)c(OC)c3)=NO2)cc1OC (configuration not stated)	inconclusive [inhibitor, partial curve, poor fit]	
CC1CCCC(NC(=O)COC(=O)c2cccs2)C1C (configuration not stated)		inactive: 19.2%
COc1cccc(CN2CCN(Cc3nc(-c4cccc(F)c4F)oc3C)CC2=O)c1	inconclusive [inhibitor, single point]	
Cc1ccc(C(=O)c2ccc([N+](=O)[O-])cc2)cc1		inactive: -4.47%
